Where a chain is given by its changes, count along the chain named. This is one part of the list.

T1: RBFOX1 RRM RbFoxmut (Fox-RRM*) (Homo sapiens, UniProt Q9NWB1 109-208, R118D;E147R;N151S;E152T)
T1 sequence: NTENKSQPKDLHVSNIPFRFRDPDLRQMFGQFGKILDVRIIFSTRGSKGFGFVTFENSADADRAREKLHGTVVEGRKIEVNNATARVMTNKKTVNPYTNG

B1: AGCCUGG (DNA:RNA)
RNA: GGGAGACCGGAAUUCAGAUUGUCCAGCCUGGUUAAAUCCCGUCGUAGCCACCA
DNA 1: CAATCTGAATTCCGGTCTCCC
DNA 2: TGGTGGCTACGACGGGATT
B2: UACUAUG (DNA:RNA)
RNA: B1 RNA with A25U, G26A, C28U, U29A, G30U
DNA 1: CAATCTGAATTCCGGTCTCCC
DNA 2: TGGTGGCTACGACGGGATT
B3: ACAAAGU (DNA:RNA)
RNA: B1 RNA with G26C, C27A, C28A, U29A, G31U
DNA 1: CAATCTGAATTCCGGTCTCCC
DNA 2: TGGTGGCTACGACGGGATT
B4: CGAGAUA (DNA:RNA)
RNA: B1 RNA with A25C, C27A, C28G, U29A, G30U, G31A
DNA 1: CAATCTGAATTCCGGTCTCCC
DNA 2: TGGTGGCTACGACGGGATT
B5: ACAGAAC (DNA:RNA)
RNA: B1 RNA with G26C, C27A, C28G, U29A, G30A, G31C
DNA 1: CAATCTGAATTCCGGTCTCCC
DNA 2: TGGTGGCTACGACGGGATT
B6: AGAAUGC (DNA:RNA)
RNA: B1 RNA with C27A, C28A, G31C
DNA 1: CAATCTGAATTCCGGTCTCCC
DNA 2: TGGTGGCTACGACGGGATT
B7: UCUUAUU (DNA:RNA)
RNA: GGGAGACCGGAAUUCAGAUUGUCCUCUUAUUUUAAAUCCCGUCGUAGCCACCA
DNA 1: CAATCTGAATTCCGGTCTCCC
DNA 2: TGGTGGCTACGACGGGATT
B8: UAUAAUU (DNA:RNA)
RNA: B7 RNA with C26A, U28A
DNA 1: CAATCTGAATTCCGGTCTCCC
DNA 2: TGGTGGCTACGACGGGATT
B9: UGACCCA (DNA:RNA)
RNA: B1 RNA with A25U, C27A, U29C, G30C, G31A
DNA 1: CAATCTGAATTCCGGTCTCCC
DNA 2: TGGTGGCTACGACGGGATT
B10: AAAACAG (DNA:RNA)
RNA: B1 RNA with G26A, C27A, C28A, U29C, G30A
DNA 1: CAATCTGAATTCCGGTCTCCC
DNA 2: TGGTGGCTACGACGGGATT
B11: GUUCCCC (DNA:RNA)
RNA: B1 RNA with A25G, G26U, C27U, U29C, G30C, G31C
DNA 1: CAATCTGAATTCCGGTCTCCC
DNA 2: TGGTGGCTACGACGGGATT
B12: CAGAAGA (DNA:RNA)
RNA: B1 RNA with A25C, G26A, C27G, C28A, U29A, G31A
DNA 1: CAATCTGAATTCCGGTCTCCC
DNA 2: TGGTGGCTACGACGGGATT
B13: AUGACCG (DNA:RNA)
RNA: B1 RNA with G26U, C27G, C28A, U29C, G30C
DNA 1: CAATCTGAATTCCGGTCTCCC
DNA 2: TGGTGGCTACGACGGGATT
B14: CCCAUUG (DNA:RNA)
RNA: B1 RNA with A25C, G26C, C28A, G30U
DNA 1: CAATCTGAATTCCGGTCTCCC
DNA 2: TGGTGGCTACGACGGGATT
B15: UAUCGAA (DNA:RNA)
RNA: B7 RNA with C26A, U28C, A29G, U30A, U31A
DNA 1: CAATCTGAATTCCGGTCTCCC
DNA 2: TGGTGGCTACGACGGGATT
B16: GCGGCCG (DNA:RNA)
RNA: B1 RNA with A25G, G26C, C27G, C28G, U29C, G30C
DNA 1: CAATCTGAATTCCGGTCTCCC
DNA 2: TGGTGGCTACGACGGGATT
B17: CAUUCCA (DNA:RNA)
RNA: B7 RNA with U25C, C26A, A29C, U30C, U31A
DNA 1: CAATCTGAATTCCGGTCTCCC
DNA 2: TGGTGGCTACGACGGGATT
B18: GGCCAAA (DNA:RNA)
RNA: B1 RNA with A25G, U29A, G30A, G31A
DNA 1: CAATCTGAATTCCGGTCTCCC
DNA 2: TGGTGGCTACGACGGGATT
B19: AACGACA (DNA:RNA)
RNA: B1 RNA with G26A, C28G, U29A, G30C, G31A
DNA 1: CAATCTGAATTCCGGTCTCCC
DNA 2: TGGTGGCTACGACGGGATT
B20: GAAGGCG (DNA:RNA)
RNA: B1 RNA with A25G, G26A, C27A, C28G, U29G, G30C
DNA 1: CAATCTGAATTCCGGTCTCCC
DNA 2: TGGTGGCTACGACGGGATT

For this assay, the target named is T1, RBFOX1 RRM RbFoxmut (Fox-RRM*). The assay can be described thus: EMSA; HiTS-Eq, 1 nM pool, 10 min; buffer printed only for the single-RNA assays: 10 mM Tris pH 7.5, 150 mM NaCl, 3.4 mM EDTA, 0.001% NP-40, 30 C. The note with it: tags: His6 N-terminal (pET28a); label: 5' 32P. The method, boiled down: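 Purified RbFox RRM (wild type or mutant) was equilibrated for 10 min in 50 µL with 1 nM of a 5′-radiolabelled pool of RNA with 7 randomized nucleotides, its flanks annealed to DNA oligonucleotides, across increasing protein concentrations. Free RNA was separated by 8% native PAGE, excised, reverse-transcribed, PCR-barcoded and sequenced on an Illumina HiSeq 2500. Relative association constants came from read-count changes of each variant against the control reaction, normalised to the cognate motif.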
A general note: A gel shift assay detects complexes by their altered migration in electrophoresis.
With B1, the binding signal was 0.116 KA relative to UGCAUGU.
The value for B2 was 0.141 KA relative to UGCAUGU.
The value for B3 was 0.103 KA relative to UGCAUGU.
In the case of B4, the binding signal is 0.141 KA relative to UGCAUGU.
The value for B5 was 0.0763 KA relative to UGCAUGU; that for B6 was 0.408 KA relative to UGCAUGU.
For the molecule B7, the binding signal is 0.109 KA relative to UGCAUGU.
In the case of B8, the binding signal was 0.0529 KA relative to UGCAUGU.
The value for B9 was 0.0589 KA relative to UGCAUGU; that for B10 was 0.0679 KA relative to UGCAUGU; that for B11 was 0.0749 KA relative to UGCAUGU.
The value for B12 was 0.093 KA relative to UGCAUGU; that for B13 was 0.119 KA relative to UGCAUGU.
The value for B14 was 0.0949 KA relative to UGCAUGU.
For B15, the binding signal was 0.0952 KA relative to UGCAUGU.
The value for B16 was 0.133 KA relative to UGCAUGU; that for B17 was 0.0839 KA relative to UGCAUGU.
As for B18, the figure is 0.0651 KA relative to UGCAUGU.
The value for B19 was 0.0641 KA relative to UGCAUGU.
In the case of B20, the binding signal was 0.0988 KA relative to UGCAUGU.

Values taken from PMC9911399, “Two distinct binding modes provide the RNA-binding protein RbFox with extraordinary sequence specificity”.
